{
  "source": "PubChem BioAssay AID1508624",
  "about": "(National Center for Advancing Translational Sciences (NCATS), 2021)",
  "note": "About 120 (0.25%) of roughly 48,000 compounds were called active. Roughly 4% stayed inconclusive and do not appear here. Calls follow the shape of the dose curve; as a rule, active = well fitted activation curve with a large enough effect; inconclusive = small, poorly fitted or top-dose-only effect, or another doubt; inactive = no such curve, though single readings can be large or run the other way. The list shows a part of the results.",
  "data": [
    {"experiment": "Primary qHTS for Identification of Small Molecule Activators of Huntingtin-Antisense Promoter Activity; also: nearly all actives have a fitted effect of over 55% in size", "details": "HEK293 HTT-AS promoter firefly luciferase reporter, 24 h; series mostly up to 57.5 µM; activity change, positive = activation: at the top concentration", "procedure,_shortened": "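Luminescence was read after Dual-Glo reagent and a 10 min room-temperature incubation. Values were normalized to vehicle (0% activity) and zero RLU (-100% activity). Reporter HEK293 cells had been exposed to compounds (up to 57.5 uM final) for 24 h.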", "values": [
      {"smiles": "COc1ccc(-c2nc3c4ccccc4n(CC(=O)N4CCN(c5ccccc5OC)CC4)c(=O)n3n2)cc1", "activity change, positive = activation": "inactive: -0.735%"},
      {"smiles": "COc1ccc(CCNC(=O)c2ccc3c(c2)c(C)c(C)n3Cc2ccc(F)cc2)c(OC)c1OC", "activity change, positive = activation": "inactive: -33.3%"},
      {"smiles": "Cc1ccc2nc(-c3ccccc3F)c(Nc3ccc(Cl)cc3)n2c1", "activity change, positive = activation": "inactive: -28.6%"},
      {"smiles": "COc1cccc(-n2c(=O)c3c4c(sc3n(Cc3ccc(C)cc3)c2=O)CCCC4)c1", "activity change, positive = activation": "inactive: -8.62%"},
      {"smiles": "O=S(=O)(NCc1ccc(F)cc1)c1ccc(-c2cnc(C3CC3)o2)cc1", "activity change, positive = activation": "inactive: -22.9%"},
      {"smiles": "Cc1nnc(NC(=O)CSCc2cc(=O)c3cc(Cl)ccc3[nH]2)s1", "activity change, positive = activation": "inactive: -5.44%"},
      {"smiles": "Cc1ccc(C(=O)c2cn(CC(=O)NC3CCCCC3)c3nc(C)ccc3c2=O)cc1", "activity change, positive = activation": "inactive: -7.32%"},
      {"smiles": "Cc1c(C(=O)N2CCCC2)oc2c1-c1nn(CC(=O)NCCCOC(C)C)cc1CC2", "activity change, positive = activation": "inactive: -23.9%"},
      {"smiles": "COc1cccc(C(=O)Nc2ccccc2C(=O)OCc2cc(=O)n3nc(C4CC4)sc3n2)c1", "activity change, positive = activation": "inactive: 2.97%"},
      {"smiles": "COc1cccc(C(=O)Nc2ccc3nc(SCC(=O)N4CCOCC4)sc3c2)c1", "activity change, positive = activation": "inactive: -4.02%"},
      {"smiles": "CCCCS(=O)(=O)c1oc(-c2cccs2)nc1S(=O)(=O)c1ccccc1", "activity change, positive = activation": "inactive: -95.2%"},
      {"smiles": "COc1cc2nc(NCCC(C)C)n3nc(-c4ccccc4)nc3c2cc1OC", "activity change, positive = activation": "inactive: -16.8%"},
      {"smiles": "Cc1cc(C)n2c(Nc3ccc(Cl)cc3)c(-c3ccsc3)nc2n1", "activity change, positive = activation": "inactive: -32.1%"},
      {"smiles": "Cc1ccc2c(CN3CCN(C(=O)c4ccc(F)cc4)CC3)cc(=O)oc2c1", "activity change, positive = activation": "inactive: -14.6%"},
      {"smiles": "Cc1ccc(OCC(=O)N(c2ccc(C)cc2)S(=O)(=O)c2ccc(Cl)cc2)cc1", "activity change, positive = activation": "inactive: 16.2% [at 11.5 µM, percent change from vehicle, -100% = no light]"},
      {"smiles": "CCOc1ccccc1NC(=O)CSc1nc(=O)[nH]c2c1CCCC2", "activity change, positive = activation": "inactive: -20.8%"},
      {"smiles": "CCc1c2c(nc3ccc(OC(=O)N4CCC(N5CCCCC5)CC4)cc13)-c1cc3c(c(=O)n1C2)COC(=O)[C@]3(O)CC", "activity change, positive = activation": "inactive"},
      {"smiles": "O=C(CS(=O)(=O)c1cccc2nsnc12)Nc1ccccc1", "activity change, positive = activation": "inactive: -4.9%"},
      {"smiles": "COc1ccccc1CNC(=O)CN1C(=O)COc2ccc(S(=O)(=O)Nc3ccccc3)cc21", "activity change, positive = activation": "inactive: -25.1%"},
      {"smiles": "CC(C)(C)c1ccc(C(=O)NCCc2csc3nc(-c4ccccc4F)nn23)cc1", "activity change, positive = activation": "inactive: -6.96%"},
      {"smiles": "CSCCC(NS(=O)(=O)c1ccc2c(c1)oc(=O)n2C)C(=O)N1CCN(c2cc(C)ccc2C)CC1", "note": "(stereo not drawn)", "activity change, positive = activation": "inactive: -29.9%"},
      {"smiles": "COc1ccc(C2CC(=O)NC(NC(=O)c3ccc(Br)cc3)=N2)c(OC)c1OC", "note": "(stereo not drawn)", "activity change, positive = activation": "inactive: 2.95%"},
      {"smiles": "COc1ccc(C2(Nc3cccc(C(=O)O)c3C)C(=O)c3ccccc3C2=O)cc1", "activity change, positive = activation": "inactive: 5.44% [at 11.5 µM, percent change from vehicle, -100% = no light]"}
    ]}
  ]
}
